Consider three molecules from patent US12605390B2, “Treatment of cancer and inhibition of metastasis” (Celex Oncology Innovations Limited, priority 2017, dated 2026).

Where two headings read alike, the source gives them in different places.

The experiment relates to FLG 29.1 cells. As to the kind of experiment: Matrigel invasion assay, leukaemic cell line.
Where [1] appears, read: 5 μM, normoxia and hypoxia (1% O2), 18 h.

As to `O=C1c2cc(-c3ccc(OC(F)(F)F)cc3)ccc2OCCN1Cc1ncccn1` [eleclazine, 4-(pyrimidin-2-ylmethyl)-7-(4-(trifluoromethoxy)phenyl)-3,4-dihydrobenzo[f][1,4]oxazepin-5(2H)-one], under setting [1], the effect on invasiveness entry is “significantly inhibited invasiveness”.
As to `NC1=N[C@H](O)[C@H]2[C@H]3O[C@]4(O)O[C@@H]([C@@H](O)[C@@]2(N1)[C@@H]4O)[C@]3(O)CO` [TTX, tetrodotoxin, reference compound], the effect on invasiveness entry was “significantly inhibited invasiveness”.
Regarding `COc1ccccc1OCC(O)CN1CCN(CC(=O)Nc2c(C)cccc2C)CC1` (stereo not drawn) [ranolazine, reference compound], under setting [1], the effect on invasiveness result is recorded as “significantly inhibited invasiveness”.
